Screen size: about 270,000 compounds; about 5,800 (2.1%) were called active. The inconclusive results got no clear call from the source; some entries with a clear call stand among them for comparison. The call rests on the fitted dose curve; in most records, active means well fitted inhibition curve with a large enough effect; inconclusive means small, poorly fitted or top-dose-only effect; inactive means flat fitted curve, though single readings scatter. Where the call is inconclusive, the potency comes from a doubtful curve fit.
molecular target: Microtubule-associated protein tau (Homo sapiens) (UniProt P10636); experiment: qHTS for Inhibitors of Tau Fibril Formation, Thioflavin T Binding; settings: recombinant tau K18 P301L (four-repeat tau fragment), heparin-induced fibrillization, ThT fluorescence; series mostly up to 57.4 µM; activity, negative = inhibition: at the top concentration; further: nearly all actives have a fitted effect of over 55% in size
Summary of the method: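 Recombinant human tau K18 fragment […] carrying P301L, 15 uM unlabeled plus 0.24 uM Alexa 594-labeled, was fibrillized with 20 uM heparin in 100 mM sodium acetate pH 7 for 6 hr at 37 C; 30 uM ThT fluorescence read after 1 hr.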
On the % scale 0 is the no-effect control and ±100 the full control effect; potency means the concentration at half of the fitted maximal effect; tags describe the fitted curve by direction and shape.

UniProt P10636, sequence (P10636 whole entry, looked up, the tested form may be a part): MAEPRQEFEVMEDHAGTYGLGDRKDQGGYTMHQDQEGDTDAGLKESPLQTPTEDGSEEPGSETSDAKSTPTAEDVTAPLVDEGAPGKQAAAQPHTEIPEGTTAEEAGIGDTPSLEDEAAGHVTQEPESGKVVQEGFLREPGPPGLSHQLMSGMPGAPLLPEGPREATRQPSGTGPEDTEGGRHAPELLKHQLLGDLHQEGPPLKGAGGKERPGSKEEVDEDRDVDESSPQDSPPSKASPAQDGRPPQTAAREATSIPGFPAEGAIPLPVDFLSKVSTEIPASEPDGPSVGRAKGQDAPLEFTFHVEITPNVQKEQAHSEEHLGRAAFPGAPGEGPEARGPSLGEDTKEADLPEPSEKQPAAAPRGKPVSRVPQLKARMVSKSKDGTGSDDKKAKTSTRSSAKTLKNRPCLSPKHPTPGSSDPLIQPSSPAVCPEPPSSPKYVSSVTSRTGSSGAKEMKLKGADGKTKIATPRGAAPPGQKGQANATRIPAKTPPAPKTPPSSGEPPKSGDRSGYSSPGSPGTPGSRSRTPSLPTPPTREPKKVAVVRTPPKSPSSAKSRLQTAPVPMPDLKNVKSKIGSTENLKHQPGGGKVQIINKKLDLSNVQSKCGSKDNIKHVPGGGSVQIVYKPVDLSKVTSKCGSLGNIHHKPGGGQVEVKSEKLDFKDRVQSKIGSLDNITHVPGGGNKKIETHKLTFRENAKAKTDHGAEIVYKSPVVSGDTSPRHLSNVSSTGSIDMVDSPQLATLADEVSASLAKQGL

SMILES	activity, negative = inhibition	Potency
CCCn1nc2cc(C(=O)NCc3ccc(OC(F)(F)F)cc3)ccc2c1OCC	inactive: -9.79%	–
Cc1ccc(-c2nnc3ccc(SCC(=O)NCc4ccco4)nn23)cc1	inactive: -1.82%	–
Cn1c(=O)n(CC(=O)N2CCN(c3nnc(-c4ccccc4)c4ccccc34)CC2)c2ccccc21	inactive: -0.325%	–
O=C(CSc1nnc(-c2ccc3c(c2)OCO3)o1)Nc1ncc(Cl)cc1Cl	–	inconclusive: 15.8 µM [inhibitor, partial curve]
CC1(O)C(=O)C=C2C=C3CCCN3C=C2C1=O (configuration not stated)	–	inconclusive: 3.55 µM [inhibitor, partial curve]
Cc1cccc(Nc2ccccc2C(=O)NCc2ccco2)c1C	–	inconclusive: 28.2 µM [inhibitor, partial curve, poor fit]
CCOc1ccc(C(c2c(O)cc(C)n(CCOC)c2=O)N2CCC(C)CC2)cc1 (configuration not stated)	–	inconclusive: 8.91 µM [inhibitor, partial curve]
COc1ccc(NC(=O)c2sc3nc4n(c(=O)c3c2C)CCC4)cc1Cl	–	inconclusive: 11.2 µM [inhibitor, partial curve]
O=C1c2[nH]nc(-c3ccc(Br)cc3)c2C(c2cccc(O)c2)N1c1ccc(Cl)cc1 (configuration not stated)	inactive: 9.54%	–
O=C(O)c1ccc(Nc2nc(-c3cc4ccccc4oc3=O)cs2)cc1O	–	active: 7.94 µM
O=C(CCCOc1ccc(Cl)cc1Cl)N1CCCc2ccccc21	–	inconclusive: 14.1 µM [inhibitor, partial curve]
COC(=O)c1cnc(NNS(=O)(=O)c2ccc(Cl)cc2)nc1C(F)(F)F	inactive: -8.21%	–
Cc1ccc2scc(N3CCN(c4ccc(F)cc4)CC3)c(=O)c2c1	–	active: 8.91 µM
CC1CCN(C(=O)c2ccc3c(c2)OCCO3)CC1	inactive: -0.466%	–
C=CCN1C(=O)/C(=c2\sc3nc(=O)c(Cc4ccccc4Cl)nn3c2=O)c2ccccc21	–	inconclusive: 11.2 µM [inhibitor, partial curve]
CN(C)S(=O)(=O)c1cccc(NC(=O)COC(=O)c2ccc3c(c2)OCO3)c1	inactive: -1.31%	–
Cc1cc(OCC(=O)Nc2ccc3c(c2)OCCO3)cc(C)c1Cl	–	inconclusive: 12.6 µM [inhibitor, partial curve]
CCOC(=O)c1cnn(-c2cc(Oc3ccccc3)ncn2)c1N	–	inconclusive: 2.82 µM [inhibitor, full curve, poor fit]
CC(=O)Oc1oc(-c2ccccc2)nc1C=Nc1ccc(N(C)C)cc1	–	active: 14.1 µM
O=C(NN=C1CCCCCCCCCCC1)c1cccc(S(=O)(=O)N2CCOCC2)c1	inactive: 1.46%	–
O=C(N/N=C/C(Cl)=C/c1ccccc1)c1cnccn1	–	inconclusive: 25.1 µM [inhibitor, single point]
CC1(C)CC(=O)C2=C(C1)NCN(Cc1ccc3c(c1)OCO3)C2	inactive: -5.98%	–
Oc1ccccc1/C=N/[n+]1ccccc1	inactive: -2.87%	–
CCOc1ccccc1C(=O)Nc1ccsc1C(=O)OC	–	inconclusive: 28.2 µM [inhibitor, single point]

SMILES	activity, negative = inhibition	Potency
O=C(Cc1n[nH]c(=O)[nH]c1=O)N/N=C/c1c(O)ccc2ccccc12	inactive: 10.7%	–
O=S(=O)(NCc1csc(-c2cccnc2)n1)c1ccc(Cl)s1	–	inconclusive: 11.2 µM [inhibitor, partial curve]
O=C(O)CNC(=O)CC1S/C(=N/N=C2/NC(=O)CS2)NC1=O (configuration not stated)	–	inconclusive: 28.2 µM [inhibitor, single point]
O=[N+]([O-])c1cc(-n2cnnn2)ccc1N1CCC(Cc2ccccc2)CC1	–	inconclusive: 15.8 µM [inhibitor, partial curve]
O=C(NCCOCCn1c(=O)oc2ccccc21)Nc1ccc(Cl)cc1	inactive: 1.16%	–
COc1ccc(Cl)c(Cn2c(NCc3ccco3)nc3c2c(=O)n(C)c(=O)n3C)c1	–	inconclusive: 17.8 µM [inhibitor, partial curve, poor fit]
COc1ccc(C)cc1NC(=S)NNC(=O)c1c(Br)cnn1C	–	inconclusive: 12.6 µM [inhibitor, partial curve]
CCSc1ccc(C(=O)NCC(=O)O)cc1	inactive: -2.63%	–
O=C(COc1ccc(Br)cc1)N1CCc2ccccc21	–	inconclusive: 1.26 µM [inhibitor, full curve]
NC(=O)c1cc(-c2ccccc2)sc1NC(=O)Cc1ccc(S(=O)(=O)N2CCOCC2)s1	–	inconclusive: 28.2 µM [inhibitor, single point]
COCCNc1nc(C)nc2c1nc(-c1ccccc1)n2CCN1CCCC1	inactive: 5.74%	–
CC(=O)Nc1ccc(C(=O)NNC(=O)c2cc([N+](=O)[O-])cc([N+](=O)[O-])c2)cc1	–	inconclusive: 6.31 µM [inhibitor, partial curve, poor fit]
CS(=O)(=O)c1ccc(C(=O)Nc2ccc(N3CCOCC3)cc2)c(Cl)c1	–	inconclusive: 11.2 µM [inhibitor, partial curve]
COc1ccc(/C=C(/C#N)C(=O)NC2CCCCC2)cc1Br	–	inconclusive: 12.6 µM [inhibitor, partial curve]
CCCCCCCCS(=O)C1CS(=O)(=O)CC1O (configuration not stated)	inactive: -5.37%	–
COC(=O)c1scc(-c2ccc(C)cc2)c1S(=O)(=O)N1CCN(c2ccc(OC)cc2)CC1	inactive: -4.16%	–
CNC(CC(=O)c1ccc([N+](=O)[O-])cc1)C(Cl)(Cl)Cl (configuration not stated)	–	inconclusive: 15.8 µM [inhibitor, partial curve]
O=C(/C=C/Nc1ccc(Oc2ccccc2Cl)cc1)c1ccco1	–	inconclusive: 15.8 µM [inhibitor, partial curve]
C(=C\c1ccccc1)/CSc1nnc(-c2ccccc2)n1Cc1ccco1	–	inconclusive: 20 µM [inhibitor, single point]
CCCCN(CCCC)C(=O)c1sc2nc(N3CCOCC3)c3c(c2c1N)CCCC3	–	inconclusive: 31.6 µM [inhibitor, partial curve]
COc1ccc2c(c1)OCC(Cc1ccc(OC)c(OC)c1)C2=O (configuration not stated)	–	inconclusive: 17.8 µM [inhibitor, partial curve]
O=C(c1ccc(N2CCCC2=O)cc1)N1CCOCC1	inactive: 0.578%	–
CCOc1ccc(-c2nc(S(=O)(=O)c3ccccc3)c(N3CCOCC3)o2)cc1	–	inconclusive: 31.6 µM [inhibitor, single point]

Source: PubChem BioAssay AID1460 (National Center for Advancing Translational Sciences (NCATS), 2008)
